Measurements from the supplement of paper PMC11417369.
This is one part of the list.

test system: PF3D7_0420300 AP2 domain 1 (GST-tagged); assay: gcPBM binding intensity (ln(normalized median fluorescence intensity)); higher = stronger DNA binding
Summary of the method: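 An Agilent 4 × 180k array of primer-extended double-stranded 36-bp intergenic genomic probes, with negative controls, was incubated for 1 h with GST-tagged P. falciparum DNA-binding domains expressed in E. coli. Alexa488 anti-GST antibody detected bound protein, scanned at 488 nm. Binding intensity is the highest Masliner-normalised natural-log median intensity across replicate spots of either probe orientation.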

Row | Sequence | gcPBM binding intensity (ln)
1 | ACCACATAAAACAAATGTACTTGAAATATATGCGTA [XGTACX_site5155] | 9.32
2 | CAAAGGGAAATTAACACACACATATTTATATTTATA [CACACA_site7202] | 9.76
3 | ATAAAAAAAAGACACACACACATATATATATATATA [CACACA_site3073] | 9.67
4 | TCAACACACGTGGAATGTACTTTAGTATAAGAATTC [XGTACX_site7842] | 9.23
5 | TAAATATATTTCATGACATGCAACTTGTTTTTTTGT [TGCATGCA_site456] | 9.34
6 | TATATATATATATAAACACACATAAATATAAATATA [CACACA_site1121] | 9.6
7 | TCTTTTACAAAAGCTATAACATTCACCACATTATAA [GTGCAC_negctrl_site133] | 9.1
8 | ATATATATATTTTATGCATGTTCATTTTCTATATTT [TGCATGCA_site442] | 9.62
9 | AAAAAAAAAATATACACACACATATATATATATATA [CACACA_site3404] | 9.46
10 | GTTAATGTGGTTACTTGTACATATTAACGTCTTTTT [XGTACX_site2617] | 9.26
11 | ATAATATATACGTGTGTGCACATGACAAAAGCATAT | 9.98
12 | ATATTTTATATTTCTTGTACATATATTTGTAGATAT [XGTACX_site1140] | 9.23
13 | TTTCTTACAACAACAACAAAAAAAAATAAATAAAAT [GTGCAC_negctrl_site711] | 9.37
14 | TATTATTTTTTTATTCTATTAAAAAGAAAAAAATGA [CACACA_negctrl_site407] | 8.63
15 | AATTTATTTTTAAAAAGTACATACTTAAGAAAACGA [XGTACX_site3660] | 9.16
16 | TCGACAATTTTATAAAGTACTTATTAGAAATATGAA [XGTACX_site7133] | 8.8
17 | CCATTTAAAACATTTTGTACTTATTTTACATTTCTG [XGTACX_site4270] | 9.4
18 | GATTCATTTCATAATACACACAACAAATATTTCAAA [CACACA_site120] | 9.46
19 | AGAAAAAAAAATTATACATGCATATACGTTTATTTT [TGCATGCA_site529] | 9.16
20 | AAACAAATAAAATTTATTAAAAAGGTCATATTATTA [CACACA_negctrl_site85] | 9.12
21 | TTTAATATAACTATTTGTACATAAAGAATATAAATA [XGTACX_site4594] | 8.86
22 | TTTTTTTGCCATATTACACACACACGGGTAAACCCC [CACACA_site6874] | 9.98
23 | TAAATTTTTATTTGTAGTACTATATATATATATATA [XGTACX_site1026] | 9.17

Row | Sequence | gcPBM binding intensity (ln)
24 | TAATGAAAATATATAACACACAAAAGTTATAAATAT [CACACA_site1189] | 9.57
25 | GTGTTGAATTATGTGCTTTTTTCTTTCTACTCAGTA [XGTACX_negctrl_site464] | 9.62
26 | CCCACAGACAAAAACACACACAAAGGTGTTCTTATA [CACACA_site4840] | 9.47
27 | AAGAGAAAAAGAATGAAAGAAAAAAAAAAAAAATAT [CACACA_negctrl_site1527] | 9.37
28 | TTTTTAAAGGTGATAAAACACACGATTTAGAAATGT [CACACA_site3160] | 9.24
29 | TTATCGACCAATAAAGCATGCAAAAAAAAAAAAAAA [TGCATGCA_site788] | 8.83
30 | CTACATAAAAAAATATGTACATATATATATATATAT [XGTACX_site667] | 9.1
31 | AAAAAAAAAAAAAACACACACATACAGACAAAAATG [CACACA_site83] | 10.1
32 | CTAAATTATAGATCAGTGCAATTTAATATGAGTCCA | 9.13
33 | TTGTAATTATTAAACACACACAAAATATATATAATA [CACACA_site2523] | 9.82
34 | CCATAAAAATATAATACACACATATATATTAACATA [CACACA_site4102] | 9.66
35 | GAACATTTGAAATATGCACACATGTATAAACATACA [CACACA_site5463] | 9.35
36 | ATACATCGTATATAAGTGCATATTAAGGTCTTAAGA [GTGCAC_site9560] | 9.31
37 | TATATATGTATCAAGTGTACAGTTTTAAAAAAAAAA [XGTACX_site6011] | 9.07
38 | ACACACAATACAAAAGTGCATATAATAATTAATCAT | 9.63
39 | AAAAAAAAAAGACACACACACAAAATAAACAAACAA [CACACA_site7308] | 10.3
40 | TATTTCATTAATGTCACTTTGAAAGAAATGAAAAAA [CACACA_negctrl_site1803] | 8.82
41 | TGTTTTTAAAAAAAAAAAAAATCACACCGGCAGGTA [CACACA_negctrl_site1437] | 8.99
42 | TGCGTATATATATACACACACATATATATATTTTAA [CACACA_site1952] | 9.52
43 | TATTGACATATATTAGTGCAATAATGAAATCAAGTA | 9.22
44 | CATATTATTCTTTTCACACACGCGTTAATAATAATC [CACACA_site3931] | 9.61
45 | TTTATATTAAAATATTGTACGGACATTATTTTGTAA [XGTACX_site8128] | 8.89
46 | CATAATATGACATACACACACAAAAAAAAAAAAATA [CACACA_site1285] | 9.91

Row | Sequence | gcPBM binding intensity (ln)
47 | AACCGGGCCTAAGATGTAATGCCTTAGCCTATAAAA [CACACA_negctrl_site479] | 8.92
48 | ATAAATATTTACAAAAGTACACATAACTTTAGATAT [XGTACX_site1685] | 9.33
49 | TAAACATAATATTTAACACACATGAAGATGTATATT [CACACA_site1036] | 9.41
50 | CACCATGATACATACACACAGACATATACGCATTCA [CACACA_site1008] | 9.58
51 | GTTTTGGCTAACTATTCACACATTAAAATATTACCA [CACACA_site5016] | 9.34
52 | ACAATCCACAGGGGCGCACACATATAAGCAGTATAT [CACACA_site3817] | 9.62
53 | AAAAAATTAATAAAAACACACAAAAAAAATAAACAA [CACACA_site1907] | 9.69
54 | TTTGTTGTTTGGAGATGTACATATTTTACACTTTTT [XGTACX_site5965] | 9.55
55 | ATTTCACAGAGACACACACACAATATATTTCCTTTT [CACACA_site7773] | 9.94
56 | TCGTGCATAAATCATACACACACACCGATATATATA [CACACA_site8767] | 9.98
57 | TTTGTATCCTTTTTGACATGCAACCATTCGGGTACA [TGCATGCA_site506] | 9.02
58 | AAAAAAAAAAAAAACGCACACATTTTTACAATTCTA [CACACA_site3271] | 9.35
59 | TCACAATTTTTTAGTACACACATATAAATATATAAA [CACACA_site1537] | 9.24
60 | TTTCATTAATCTAATAGTACAGAAAATTGAGAAAAA [XGTACX_site8395] | 8.94
61 | TCTATTAATTAATATACACACATTATGTATATATAT [CACACA_site2541] | 9.46
62 | GTATACAAACATATAAATATAAATGTATTATTTGTT [CACACA_negctrl_site756] | 9.2
63 | CACGAACACAAACACAAACACACATCATATATATAT [CACACA_site1322] | 9.83
64 | AAAGATAAAAAAAGTACACACACACCGATATATATA [CACACA_site9006] | 10.2
65 | ACTTTAACCTGAACGGTGCATAAAATTTTGGCATTA | 9.1
66 | AATATATATAAAAAGGGAAAAATATATAAATAGATA [XGTACX_negctrl_site52] | 9.51
67 | AAAAAATTGACTAATGCACACAATTACAGATATATA [CACACA_site5010] | 9.51
68 | CATATTTTCAAAATTAGTACATAAAAAAAAAAATAT [XGTACX_site3101] | 9.37
69 | TATAATCATATATACACACACATATATATATATATA [CACACA_site2168] | 9.59

Row | Sequence | gcPBM binding intensity (ln)
70 | TCTTCCGCTTTATGGAGTACTATGGTAGCCTTTCCT [XGTACX_site2958] | 9.14
71 | GACCTACAAAAAGGCACACATATACGCATACATACA [CACACA_site2179] | 9.38
72 | ATATGCATAAAAAGAGGTACACATAAAATATATATA [XGTACX_site5864] | 9.58
73 | TATACACATATATAAAGTACATATATGTGTAAAAAA [XGTACX_site8582] | 9.4
74 | CAAAAAATGAAACACACACACACACCCATAAATAAA [CACACA_site1231] | 10.1
75 | TCATATATAAAAAGGGTGCTTTTAAAAGAATGGATT | 9.26
76 | CAGATATTTGTTCATATACACACTTTTGATAAAATA [CACACA_site1219] | 9.34
77 | AATATTTTTTGTTTTACACACATATATAGATATATA [CACACA_site7662] | 9.67
78 | TTTTTTTTTGTATTTTCACACATTTTTTTTTTTTTT [CACACA_site5407] | 9.48
79 | TTATTTAAACAAATCACACACAAATATATATACATA [CACACA_site2019] | 9.71
80 | AAAAATACAATTTTCTTGCACTTTGTTGCATTGTAA | 9.12
81 | AACATATACACGAACACACACACATATAAATAAATA [CACACA_site6380] | 9.96
82 | CAAAATATAAAAACATGTACATAAATATTAACGAAT [XGTACX_site2380] | 9.7
83 | TCATCCACATATTGTAGTACAAGATAATTGTTTATT [XGTACX_site1634] | 9.25
84 | ATATGTTTATTAAATGCATGTCAAGACTTAAGATAT [TGCATGCA_site329] | 9.24
85 | AATTTTAATTATATCACACATAATATATACCAAAAA [CACACA_site6011] | 9.31
86 | AAAAAAAAAAGACACACACACACACGGAGATATATA [CACACA_site6216] | 10.3
87 | TTTAATACTTTTTTCTGTACACACTTGATTTACTAT [XGTACX_site5925] | 9.68
88 | TACATATTTTTATATACACACAATAATTACTATAAA [CACACA_site6879] | 9.4
89 | AAAATACATAAACGTTCACACATTGAAGATCACAAG [CACACA_site5347] | 9.55
90 | TAGGTACATAAATTGGTGCAAAGTGTACATATATAT | 9.53
